Source: the supplement of paper PMC12217912
The list shows a part of the results. The full chains were built here from the parent and the listed change. Inactive controls read about 0.05.

B1: TEV protease; numbered along this chain (parent)
chain: MGESLFKGPRDYNPISSSICHLTNESDGHTTSLYGIGFGPFIITNKHLFRRNNGTLVVQSLHGVFKVKDTTTLQQHLVDGRDMIIIRMPKDFPPFPQKLKFREPQREERICLVTTNFQTKSMSSMVSDTSCTFPSGDGIFWKHWIQTKDGQCGSPLVSTRDGFIVGIHSASNFTNTNNYFTSVPKNFMELLTNQEAQQWVSGWRLNADSVLWGGHKVFMVKPEEPFQPVKEATQL

Variants of: B1
Assay: raw area under fraction-flipped curve 0-4 h after induction (AUC4h, not background-subtracted), DNA-recorder readout of cleavage of the substrate (dimensionless); higher = more cleavage of the substrate by the protease variant
Conditions: temperature: 34 °C; time window: 0-4 h after rhamnose induction
Procedure: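 In vivo DNA recorder in E. coli TOP10(DE3) ΔrhaA at 34 °C. Each TEVp single-site mutant (parent TEVp 0) is paired with a single-site variant of the 7-mer TEVs (canonical ENLYFQ|S). The substrate sits between flexible linkers in a Bxb1-sfGFP-TEVs-SsrA fusion, so cleavage stabilises Bxb1 and speeds flipping of a recombination array, read by NGS. The value is the raw area under the fraction-flipped curve over 0-4 h after rhamnose induction (AUC4h), with ≥20 reads per time point. It is not background-subtracted; inactive controls average about 0.047.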
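Note: Bxb1 expression induced with 0.2% (w/v) L-rhamnose at OD600 near 0.5, cultures sampled hourly, flipped fraction per protease–substrate barcode pair counted by paired-end Illumina sequencing.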

Row | Variant | area with substrate ENLAFQS | area with substrate ENLCFQS | area with substrate ENLDFQS | area with substrate ENLEFQS | area with substrate ENLFFQS | area with substrate ENLGFQS | area with substrate ENLNFQS | area with substrate ENLRFQS | area with substrate ENLWFQS | area with substrate ENLHFQS | area with substrate ENLLFQS | area with substrate ENLPFQS | area with substrate ENLSFQS | area with substrate ENLKFQS | area with substrate ENLMFQS | area with substrate ENLQFQS | area with substrate ENLVFQS | area with substrate ENLIFQS | area with substrate ENLTFQS
1 | D128E | 0.0712 | 0.0754 | 0.0652 | 0.0563 | 0.1 | 0.0701 | 0.0895 | 0.0568 | 0.0824 | – | – | – | – | – | – | – | – | – | –
2 | D128W | 0.197 | – | 0.0682 | – | 0.156 | – | 0.188 | 0.115 | – | 0.112 | 0.0583 | 0.055 | 0.0887 | – | – | – | – | – | –
3 | D128L | 0.07 | – | 0.0783 | 0.0754 | 0.11 | – | 0.0735 | 0.102 | – | 0.079 | – | 0.0597 | 0.0672 | 0.0869 | 0.0922 | 0.0839 | 0.102 | – | –
4 | D128R | 0.0566 | 0.098 | 0.0507 | 0.0594 | 0.0839 | – | 0.0784 | – | – | – | 0.0814 | 0.042 | – | – | 0.0814 | 0.13 | – | 0.112 | –
5 | D128Y | 0.0847 | 0.0885 | – | – | 0.109 | – | 0.0763 | – | – | 0.0758 | 0.105 | 0.0665 | 0.0702 | 0.11 | – | – | – | – | 0.0795
6 | D128F | 0.065 | – | 0.0555 | 0.0692 | 0.107 | – | 0.0708 | 0.0842 | – | – | – | 0.0614 | – | 0.105 | – | 0.0737 | 0.122 | – | –
7 | D128N | 0.0668 | 0.0729 | 0.054 | 0.0514 | 0.0979 | – | 0.021 | 0.0794 | 0.0695 | 0.0601 | – | 0.0613 | – | – | – | – | – | 0.111 | –
8 | R81T | 0.0456 | – | 0.0733 | 0.0568 | 0.069 | 0.0601 | 0.0657 | 0.0593 | 0.0682 | 0.0579 | 0.0669 | 0.0587 | 0.0573 | 0.0528 | 0.0369 | 0.0614 | 0.064 | 0.0757 | 0.0576
9 | R81N | 0.0593 | 0.0615 | – | – | 0.0639 | 0.106 | – | 0.062 | – | 0.0617 | – | – | 0.0506 | 0.0741 | – | – | 0.0657 | – | –
10 | E103G | 0.0759 | – | 0.0625 | 0.0519 | 0.0767 | 0.0744 | 0.0584 | 0.0682 | 0.058 | 0.0599 | 0.0589 | 0.0661 | 0.0726 | 0.065 | 0.0704 | 0.0648 | – | 0.0697 | –
11 | P104M | 0.0487 | 0.0513 | 0.0547 | 0.0464 | 0.0674 | 0.0595 | 0.0603 | 0.0414 | – | 0.0563 | 0.0446 | 0.0438 | 0.0486 | – | 0.0501 | 0.0463 | 0.054 | 0.0616 | –
12 | P104I | 0.0604 | 0.0688 | 0.067 | 0.0608 | 0.0643 | 0.0558 | 0.0579 | 0.057 | – | 0.0537 | 0.061 | 0.059 | 0.0439 | 0.0616 | 0.0565 | 0.0539 | 0.0732 | 0.0767 | 0.0378
13 | P104D | 0.0599 | 0.0512 | 0.063 | 0.0493 | 0.0719 | – | 0.0575 | 0.0327 | 0.0514 | 0.0524 | 0.0542 | 0.06 | 0.0418 | 0.059 | – | – | – | – | 0.0571
14 | P104T | 0.0557 | 0.0379 | 0.0519 | – | 0.0485 | – | 0.0902 | – | – | – | 0.0472 | 0.0629 | – | 0.0506 | – | 0.0394 | – | – | –
